# Measured values as given in the supplement of paper PMC12632987.
# The full ranking holds about 2,300 sequences; the median of “median log2 fold change of GCK-ALFA target abundance (FLAG IP / Myc IP barcode read proportion)” is about 0.095, and the lowest 2% start at about -0.47. The list shows a part of the results.
# B1: LC3A_free_2_2171 (protein)
# chain: TMYRFEVDTLGTAEEIYDLVLRLLELGARVTVTDANGNTVDLTGKSEEEIKKIAEEFAKTGYVRIVVEVPEEKKEEVEEAIDEAAERIGSAVITLPEAIP
# B2: LC3A_147_507 (protein)
# chain: YKLTVEIDLIVKNAEEEVKKMIKEIEEELKKKGFEVEVKIETEKLDEDTTYIHITITVKAKTKEEAEEARDLILDRLDEFLEKNKDKILGSLISYEIEEE
# B3: LC3A_28_1240 (protein)
# chain: SHVEEQIKEAKKEVEKAVKEGKEALVTLTVTGSDTEEDIEKIIEAMEEIAELAKDLPRLSIIIDVDASVPEEHINKLADAAEEIEEKYPNVTVILALEER
# B4: LC3A_23_619 (protein)
# chain: MYRITIDVDVLVPREEAEAVRARLRATLQAIVDKYADKALASELEFEEEELEDGTVYLRGRLTLVTDLDEAEAQAIADDAVTEISAALPDAVISYSVEKL
# B5: LC3A_28_1071 (protein)
# chain: MKVEEEIEKAKKEAKEAKKEGKDVVIVVKLEESDTDEEVEKKIEAIKEIGEILKDVKDATIVVEVEGEVAKKYLDKIAEVGEEIEKKYPNVTVIIALDEE
# B6: LC3A_28_1059 (protein)
# chain: MSIEEELEEALEEAREAVERGEEALIELTIDEDATEEDVELVLETMEEIAELTKDLPRTTIVVDVDHKNKEEVTKLVSEKGDRLEKRYPNVTVIIALSEE
# B7: LC3A_132_309 (protein)
# chain: GEELAKKLIELAKEALKLVKEDDSKEEEVLKLLKEIRELMKKLAKEASPELAAKTFEEVTDLMIEISRLASKKGWEEVSLEAFALAAEAAQLASDARKKL
# B8: LC3A_28_886 (protein)
# chain: GEAIESAKKALEEVKKAMAAGNKEPLVLEVKAPSKEEDVEKLIEILEEIAKEASKGIKVHIIIDIDESVSQENKDKIIDHGEEIEKKYPNVTVIFALPES
# B9: LC3A_free_46_2426 (protein)
# chain: VDIDVDLLLEGDDEEKLKAAVEEIKEAFKKIAEEYNAELEIEVEFSTDPDGNHFAHINIKITSDDLETQQKIANESIDSIDKIAEKYGVSYIISVDIEKK
# B10: LC3A_free_46_2314 (protein)
# chain: YIGEIILDIFGVDEETAEALVKELEKKFKEIAKKYGLEIEIKVEKYLNEDGTTYVEIDITLKGEDKEKLKEAVNEIISEADKIAEKYGATLVVSYEIEEE
# B11: LC3A_free_46_2394 (protein)
# chain: IRGEIDILLKGATMEQAREIAEAAVEKIKEEAAKLGIKVEIEVTIERDEDGDVFIRIEVKMDTKDKQQALDILDATMDEALALAKELGIEASAIISVEEE
# B12: LC3A_28_1255 (protein)
# chain: SEVEESIEKALAEAKAAVEKGEEAVVTIKVPAGVTEEETEKIIEAMDEIAELTASLPSTTIIVDVEAGVAQEHIDKLADKGEELEKKYPHLTVIIALEEE
# B13: LC3A_28_1155 (protein)
# chain: SAEVEEAKKLIDEDAERDKDEEEVYLEVKITSSVTVEEAREIMDHVEEVVEKLKDKKKIYVVVTFEEPVSQEVLDEVLRRAEEIEEKFPNVDVIIALPED
# B14: LC3A_59_2024 (protein)
# chain: SEELKELVEKIIENKDNIDKMAETILEGFELVKDDPEALKELEELLVKGLVEAGLLSKELAEEMVNEIKKAYETLKDREEQLKAIKEIITIYLNEEEIEE
# B15: LC3A_17_577 (protein)
# chain: SEETKKLLEEAVKQLEKAAKLAEKLDPEAAKKVKELLEKVKEAAETKSDLEIAETIAEQMDKVADILDSLEDKDPDATGHASMEADGVSIEAESLALKLE
# B16: LC3A_3_1901 (protein)
# chain: MEELLARARAVLEARGYSPEAIAAILAELRRLLELGYERVVEEIIRLLEENPTISGEAAVRIARDVLEAAEKEKLSEEELIEFAREEARLAVNENEIEEL
# B17: LC3A_free_46_2326 (protein)
# chain: YKVEIEIDALHDDKEKMEKFVEELKKKLKEIAEKYNAKIEIEVEISKDEDGSYFARIKIKVYAETLETAEKIKNEIIDSIEEIAEKYNASVLISYEIIKE
# B18: LC3A_141_371 (protein)
# chain: KTITKTYTYGYMDADQARAKIDAIMADVKKLIEETGGATVTVTTTITTYNEATGETTTETVTETITPENIDLVSEGLLIEVESAALKGKVAITTTITTTE
# B19: LC3A_3_1526 (protein)
# chain: MEEIRARILALLREAGADEETLATAEEALDLLEARGYLKAQEVLLEEVERLRDASPEVLAWFVEEVLELVRTEDLDEEELSAEIRKIAATALADHEIEEL
# B20: LC3A_17_572 (protein)
# chain: DEATRALVERTLAVLEEAQAFAATVDAAKAAQVAALIAQLREAAATLSPLEVAETAAELMDQTAEILDSLKAADPDKREHLSMEAEGVAIEAESLALRLE
# B21: LC3A_127_188 (protein)
# chain: EIEKLIKELLKELEKLSELLSSPDFDLEEAEKLAKKILKLAKELEKLDPRFKPLVEDAKELLKIIEEMKNASPAEQEELKEHALMLVEGMEIEALSLELK
# B22: LC3A_28_1009 (protein)
# chain: MSVVEKTKKEAEKAIAEAKKGKDAYLEIDITKDTTLEEVKEINEIIEKTAKEISKIKNVKLYVVVNDDSNQENHDIILDSMDKVEKEYPNVSSIIAYTDE
# B23: LC3A_28_769 (protein)
# chain: MDIEEEVARAKERAKAAVAAGEEDVIVLTVPKGATQEDIDKAIEGLYEIAEIVKDMKRQTIVIDVESGVKQEHIDKLADAAEEIEKKYPNVTVILALDED
# B24: LC3A_3_1388 (protein)
# chain: FEEIKKETLEELKKFGKSEEVIEKAKEVLDALEEKGYLNAMKTLLEELKELKDASDELLLSFLEDVLEVVTTKDLSEEELVKKIKEEATVTKNESEIEEL
# B25: LC3A_13_344 (protein)
# chain: SITITADTADELLTKSKAALDANPGSTLNITVTVKNEAEADAVAAALKEIIDHAISKGSTLNITLKGKKDLVNYTALEVGSHIFEKTGKANVTVTTEVVE
# B26: LC3A_102_129 (protein)
# chain: DPEELKREKLRRVREEVERLLEKDKSLSEEEKERALRLAEELARAALDNALTEIQHGFEDIVAIDRALEALEELEKIDPELAEEIRRIVERAVREFREEL
# B27: LC3A_28_776 (protein)
# chain: MDIEEEIKKAIEEAKAAKAAGEEAVIEIKVPNGATEEDIEKVIEGMKEIAEITKDMKSTAIVVDVDSGVKQEHLDKLIDAGEEIEKKYPNVNVIFALDED
# B28: LC3A_17_542 (protein)
# chain: MEEIKKELEELLKKLEKLVEKLAEYDPEKAKKLKKKLEEAKKLIKAGKLKEAAELLAEAAREAAEAWEELEPEYGTEASVYAMEASGLELEAIGILLKLD
# B29: LC3A_free_46_2325 (protein)
# chain: YLVEIELDALHKDKETMEKFVEELEKKIKEIAEEYNAKIEIEVEIEKDEDGSYYARIKIKVEAETLEKAKEIKNKIIDSIDEIAKKYNASVLISYEIIET
# Target: MAP1LC3A, Q9H492
# Assay: median log2 fold change of GCK-ALFA target abundance (FLAG IP / Myc IP barcode read proportion) (log2 ratio); each designed protein is fused to an ALFA-tag nanobody in HEK293 cells to bring the named protein to FLAG-tagged glucokinase (GCK); Myc marks an untargeted standard; higher = target protein stabilised (more abundant)
# Details: target protein: 3xFLAG-MCP-GCK-ALFA reporter; HEK293 landing pad (RPLP)
# How it was run: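 The readout is target abundance, the per-binder median log2 ratio of FLAG to Myc barcode read proportions. It came from HEK293 landing-pad cells carrying a recombined ALFA-nanobody-fused binder library, induced with 2 μg mL^−1 doxycycline and transfected with a plasmid for a FLAG-tagged target and a Myc-tagged standard. After 48 h, lysates were immunoprecipitated with anti-FLAG and anti-Myc, and circular RNA barcodes were reverse transcribed, amplified and sequenced. Each barcode needed a proportion of at least 10^−7 in both replicates and each binder at least 3 barcodes per replicate, a pseudocount of 10^−6 was added, and the replicates were pooled.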
row,Binder,median log2 fold change
1,B1,0.0987
2,B2,-0.129
3,B3,-0.246
4,B4,0.151
5,B5,-0.029
6,B6,-0.148
7,B7,0.306
8,B8,-0.158
9,B9,0.0526
10,B10,-0.102
11,B11,0.0175
12,B12,0.3
13,B13,-0.446
14,B14,0.373
15,B15,0.231
16,B16,0.351
17,B17,0.106
18,B18,0.165
19,B19,0.159
20,B20,0.105
21,B21,0.156
22,B22,-0.428
23,B23,0.0462
24,B24,0.302
25,B25,0.222
26,B26,-0.44
27,B27,-0.0907
28,B28,-0.71
29,B29,-0.0876
